From PubChem BioAssay AID588855 (National Center for Advancing Translational Sciences (NCATS), 2011)
Hit rate of the full screen: of about 410,000 compounds, about 5,000 (1.2%) were called active. Inconclusive means that the source gave no clear call. Such entries were picked first, then a sample of the others. Calls follow the shape of the dose curve; as a rule, active = well fitted inhibition curve with a large enough effect; inconclusive = small, poorly fitted or top-dose-only effect; inactive = no such curve, though single readings can be large or run the other way. A potency beside an inconclusive call is a rough fit, not a confirmed value.

Experiment: qHTS for Inhibitors of TGF-b; also: nearly all actives have a fitted effect of over 65% in size
Conditions: HepG2 CAGA-GFP TGF-b/SMAD3 reporter, GFP fluorescence, 18 h, TGF-beta stimulated, 500 pg/mL final; series mostly up to 46.1 µM; activity, negative = inhibition: at the top concentration
In short: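 HEPG2 CAGA-GFP cells (1000/well, DMEM with 1% FBS) were pre-incubated 2 h at 37 degrees C, given compound by pin tool, then stimulated with TGF-beta at 500 pg/mL final for 18 h before per-cell GFP fluorescence imaging.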
% is scaled to controls: 0 for no effect and ±100 for the full control effect; potency is read from the fitted curve at half-maximal effect; tags tell the direction and shape of the fitted curve.

| Structure (SMILES) | Potency | activity, negative = inhibition |
| --- | --- | --- |
| COc1ccc([N+](=O)[O-])cc1NC(=O)Cc1ccc(Cl)cc1 | inconclusive: 0.562 µM [inhibitor, full curve, poor fit] |  |
| CCCN(CC(=O)Nc1ccc(F)c(F)c1F)C(=O)c1ccc(=O)n(Cc2ccccc2)n1 | inconclusive: 35.5 µM [inhibitor, single point] |  |
| Cc1ccccc1CNCCSc1nnnn1-c1ccccc1 | inconclusive: 1 µM [inhibitor, full curve, poor fit] |  |
| COc1ccc(C(=O)CN2CC(C)SC2=Nc2ccc(Cl)cc2)cc1 (centres undefined) |  | inactive: -2.34% |
| C/C(=N\NC(=O)c1ccc(Cl)c(Cl)c1)c1ccccn1 | inconclusive: 1.78 µM [inhibitor, partial curve] |  |
| CCCOc1cc(C)c(S(=O)(=O)n2ccc(C)n2)cc1C | inconclusive: 6.31 µM [inhibitor, single point] |  |
| O=C(COC(=O)c1ccc(O)cc1)Nc1cc(C(F)(F)F)ccc1Cl | inconclusive: 35.5 µM [inhibitor, single point] |  |
| COc1ccc(C)cc1S(=O)(=O)N(CC(=O)Nc1cccc([N+](=O)[O-])c1)c1ccc(C)cc1 | inconclusive: 7.08 µM [inhibitor, partial curve, poor fit] |  |
| O=C(Nc1ccc(NC(=O)c2ccccc2Cl)cc1)c1cccnc1 |  | inactive: 8.55% |
| COc1ccc(C2C(C(=O)Nc3cc(OC)c(OC)c(OC)c3)c3ccccc3C(=O)N2C)cc1 (centres undefined) | inconclusive: 14.1 µM [inhibitor, partial curve, poor fit] |  |
| CCOC(=O)N1CCN(C(=O)Cn2nc(C)n3nc(-c4ccccc4)cc3c2=O)CC1 |  | inactive: -0.573% |
| O=C(Nc1ccc(Br)cc1)c1ccc(F)c(S(=O)(=O)N2CCN(c3ccccn3)CC2)c1 |  | inactive: -22.9% |
| CCCC(C(=O)Nc1ccc(S(=O)(=O)N2CCOCC2)cc1)c1ccccc1 (centres undefined) | inconclusive: 35.5 µM [inhibitor, single point] |  |
| COc1ccc(C(=O)OCc2cc(=O)n3c(C)csc3n2)cc1F | inconclusive: 2.82 µM [inhibitor, single point] |  |
| CC1=C(C(=O)OC2CCCCCC2)C(c2ccccc2Cl)CC(=O)N1 (centres undefined) | inconclusive: 35.5 µM [inhibitor, single point] |  |
| CCOC(=O)CNC(c1ccccc1)c1cc(Br)ccc1NC(=O)OCC (centres undefined) |  | inactive: -12.3% |
| COc1ccc(-c2nc(CSCC(=O)N3CCN(c4cccc(C)c4)C(C)C3)c(C)o2)cc1OC (centres undefined) | inconclusive: 10 µM [inhibitor, partial curve, poor fit] |  |
| Cc1ccc(-n2c(SCc3nc(-c4ccc(Cl)cc4)no3)nnc2-c2ccncc2)cc1 | inconclusive: 35.5 µM [inhibitor, partial curve, poor fit] |  |
| CCc1ccc(NC(=O)CN(c2ccc(C)cc2)S(=O)(=O)c2c(C)nn(C)c2C)cc1 |  | inactive: -17.4% |
| O=C(Nc1c2c(nn1-c1ccccc1)CSC2)c1ccc(N2C(=O)CCC2=O)cc1 | inconclusive: 2.82 µM [inhibitor, single point] |  |

| Structure (SMILES) | Potency | activity, negative = inhibition |
| --- | --- | --- |
| Cc1cccc(C(=O)C2CCN(S(=O)(=O)c3cccc(C(=O)O)c3)CC2)c1 | inconclusive: 10 µM [inhibitor, partial curve, poor fit] |  |
| CC1(C(=O)Nc2cnc3ccccc3c2)CCN1Cc1ccccc1OC(F)F (centres undefined) | inconclusive: 15.8 µM [inhibitor, single point] |  |
| COCCN(C(=O)COC(=O)c1ccccc1NCc1ccco1)c1c(N)n(Cc2ccccc2)c(=O)[nH]c1=O | inconclusive: 11.2 µM [inhibitor, partial curve, poor fit] |  |
| Cc1nn(CC(=O)Nc2ccc(N3CCOCC3)cc2)c(C)c1[N+](=O)[O-] |  | inactive: -14.6% |
| COCCN1C(=O)N[C@@H](c2ccccc2)[C@H](C(=O)OC)[C@H]1C | inconclusive: 6.31 µM [inhibitor, single point] |  |
| CCc1ccc(/C(C)=N/Nc2cc(Cl)nc(C)n2)cc1 | inconclusive: 14.1 µM [inhibitor, partial curve, poor fit] |  |
| COc1cc(/C=C/C(=O)OCC(=O)Nc2cc(C(F)(F)F)ccc2N2CCOCC2)ccc1O | inconclusive: 2.82 µM [inhibitor, partial curve, poor fit] |  |
| C=CCOC(=O)C1=C(C)OC(N)=C(C#N)C1c1ccc(F)cc1 (centres undefined) | inconclusive: 14.1 µM [inhibitor, single point] |  |
| CNC(=S)NNC(=O)c1oc2nc(-c3ccccc3)cc(C)c2c1N | inconclusive: 1.26 µM [inhibitor, partial curve, poor fit] |  |
| Cc1ccc(NC(=O)CC(O)(C(F)(F)F)C(F)(F)F)c(Br)c1 | inconclusive: 22.4 µM [inhibitor, single point] |  |
| O=C(C[C@H]1C/C=C\CCC(=O)OC[C@H]2CCCN2C1=O)NCCO | inconclusive: 14.1 µM [inhibitor, single point] |  |
| CC1CCCCN1CCCNc1ccc(C(CC(N)=O)NC(=O)Cc2ccc(Br)cc2)cc1[N+](=O)[O-] (centres undefined) | inconclusive: 0.355 µM [inhibitor, full curve, poor fit] |  |
| CCN(CC(=O)Nc1ccc(NC(C)=O)cc1)C(=O)/C=C/c1cn(-c2ccccc2)nc1-c1ccc(C)cc1 |  | inactive: -27% |
| CCOc1ccc(C(c2c(NC(=O)c3ccccc3)sc(C)c2C)N2CCN(CCO)CC2)cc1 (centres undefined) | inconclusive: 20 µM [inhibitor, single point] |  |
| O=[N+]([O-])c1ccc(N/N=C/c2ccc(O)c(O)c2O)c(S(=O)(=O)N2CCOCC2)c1 | inconclusive: 35.5 µM [inhibitor, partial curve, poor fit] |  |
| CC(=O)N(Cc1cccs1)Cc1cc2ccc(C)c(C)c2nc1Cl | inconclusive: 15.8 µM [inhibitor, single point] |  |
| COc1ccc(C(=O)Nc2ccccc2[N+](=O)[O-])cc1S(=O)(=O)N1CCOCC1 | inconclusive: 35.5 µM [inhibitor, single point] |  |
| O=C(CCC(=O)N1CCN(S(=O)(=O)c2ccc(Cl)cc2)CC1)NCc1cccc(C(F)(F)F)c1 | active: 7.08 µM |  |
| CC(=O)Oc1ccc(N(C(C)=O)S(=O)(=O)c2cccs2)c2ccccc12 | active: 10 µM |  |
